Data: publication PMC4336329 (PLoS ONE, 2015)
Hit rate of the full screen: of about 310,000 compounds, about 14,000 (4.5%) showed an effect of 50% or more. Effects have a minus sign here. Some of the results follow.

Target: human ether-à-go-go-related gene (hERG) potassium channel (human, UniProt Q12809)
Assay: primary screen, population patch clamp on CHO cells stably expressing hERG
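Further: peak tail current of the secondary pulse compared with the same well before compound.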

Chain of human ether-à-go-go-related gene (hERG) potassium channel (Q12809 whole entry, looked up): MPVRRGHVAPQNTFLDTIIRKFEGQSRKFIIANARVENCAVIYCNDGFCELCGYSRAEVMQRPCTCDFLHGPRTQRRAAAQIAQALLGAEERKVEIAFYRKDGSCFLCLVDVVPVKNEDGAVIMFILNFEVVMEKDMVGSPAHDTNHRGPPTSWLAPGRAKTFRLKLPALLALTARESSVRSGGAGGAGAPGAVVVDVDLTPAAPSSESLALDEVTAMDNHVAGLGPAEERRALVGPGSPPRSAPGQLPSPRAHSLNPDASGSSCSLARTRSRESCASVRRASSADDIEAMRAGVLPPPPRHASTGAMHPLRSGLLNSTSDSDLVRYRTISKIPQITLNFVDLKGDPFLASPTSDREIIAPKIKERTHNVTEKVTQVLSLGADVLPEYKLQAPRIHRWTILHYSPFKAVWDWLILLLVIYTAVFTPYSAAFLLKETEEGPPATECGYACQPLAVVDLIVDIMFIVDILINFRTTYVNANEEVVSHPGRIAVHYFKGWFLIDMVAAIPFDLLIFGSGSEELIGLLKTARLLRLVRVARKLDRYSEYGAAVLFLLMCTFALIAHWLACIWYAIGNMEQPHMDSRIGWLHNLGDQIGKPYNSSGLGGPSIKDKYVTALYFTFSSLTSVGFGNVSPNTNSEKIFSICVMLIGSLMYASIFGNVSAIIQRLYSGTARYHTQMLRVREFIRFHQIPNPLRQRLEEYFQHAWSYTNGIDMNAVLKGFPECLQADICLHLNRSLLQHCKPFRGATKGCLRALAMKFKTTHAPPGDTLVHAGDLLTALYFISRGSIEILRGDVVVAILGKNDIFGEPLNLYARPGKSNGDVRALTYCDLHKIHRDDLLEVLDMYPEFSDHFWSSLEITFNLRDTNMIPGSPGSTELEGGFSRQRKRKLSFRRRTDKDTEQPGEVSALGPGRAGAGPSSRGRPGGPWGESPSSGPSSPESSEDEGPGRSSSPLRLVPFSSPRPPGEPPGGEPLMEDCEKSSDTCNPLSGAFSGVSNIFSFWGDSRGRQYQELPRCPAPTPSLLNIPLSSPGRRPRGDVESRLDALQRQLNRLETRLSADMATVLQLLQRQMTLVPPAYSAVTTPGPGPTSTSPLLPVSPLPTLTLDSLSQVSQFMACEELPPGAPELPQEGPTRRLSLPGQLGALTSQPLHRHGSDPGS

SMILES	hERG current change (%, negative = inhibition) at 10uM
NS(=O)(=O)c1ccc(NC(=S)NCc2cccc(Cl)c2)cc1	6.04%
COC(=O)c1ccc(NC(=S)NNC(=O)c2ccccc2)cc1	29.3%
Cn1c(=O)c2c(SCCN3CCOCC3)nc(C3CCCC3)nc2n(C)c1=O	-2.12%
CCN(CC)C(=O)c1ccc(NC(=O)CCCSc2ccccc2)cc1	-8.65%
CCC(C)NC(=O)c1nn(C)c(=O)c2ccccc12 (stereo not drawn)	12%
COc1cccc(/C=N/NC(=O)c2cc3cc([N+](=O)[O-])ccc3s2)c1O	2.07%
CCCCOc1ccc(C)cc1CN(CCO)CCO.Cl	1.6%
C[C@H](NC(=O)[C@H]1N2C(=O)c3ccccc3C2SC1(C)C)C(=O)N1CCC[C@H]1CO (stereo partly drawn)	7.57%
O=c1[nH]c2ccccc2n2c(C(F)(F)F)nnc12	14%
O=C(COC(=O)c1cccc(S(=O)(=O)N2CCN(c3ccc(F)cc3)CC2)c1)NCC1CCCO1 (stereo not drawn)	19.9%
Cc1ccc(CNC(=O)c2cccnc2Cl)cc1	9.97%
Cc1nnc(NC(=O)CCCN2C(=O)c3ccccc3C2=O)s1	6.88%
Cc1ccccc1-c1nc(CS(=O)CC(=O)NC2CC2)c(C)o1 (stereo not drawn)	11.8%
CC(=O)c1cccc(NC(=O)c2ccc3c(c2)CCCC3)c1	-7.8%
CN1CCN(c2ccccc2NC(=S)NC(=O)c2cc3ccccc3o2)CC1	-16.5%
CCc1nnc(NS(=O)(=O)c2ccc(NC(=S)NC(=O)c3cccs3)cc2)s1	3.53%
Cn1cnnc1SCCCN1C(=O)c2cccc3cccc(c23)C1=O	-30.6%
CCOc1ccc(-c2cc(N3C(=O)Nc4ccccc4N3O)on2)cc1	26.7%
COc1ccc(C(=O)N2CCCC2)cc1S(=O)(=O)N1CCOCC1	-1.7%

SMILES	hERG current change (%, negative = inhibition) at 10uM
CCc1ccc(N(C(=O)c2csnn2)C(C(=O)NC(C)(C)C)c2ccccn2)cc1 (stereo not drawn)	-42.7%
CNC(=O)c1ccccc1Nc1ccc(SC(F)F)cc1	-1.62%
CC(=O)c1cccc(NS(=O)(=O)N2CCCCC2)c1	12.5%
Cc1[nH]c2ccccc2c1C(c1ccncc1)N1CCN(c2ccccc2F)CC1 (stereo not drawn)	-7.48%
COc1ccc(-c2cc(C(=O)NCCCn3ccnc3)no2)cc1	-18.1%
Cc1ccc(NC(=S)N(CCCN2CCN(C)CC2)Cc2cccs2)cc1	-51.3%
Cc1ccc(S(=O)(=O)N(C)c2c(C)ccc(S(N)(=O)=O)c2C)cc1	-10.9%
COC(=O)c1sc(-c2ccc(Cl)cc2)cc1NC(=O)c1ccccc1C(=O)O	7.49%
O=C(N/N=C/c1ccc(Cl)c([N+](=O)[O-])c1)C1CC1	-1.88%
COc1ccc(C(=O)c2c[nH]c3ccccc23)cc1	-2.93%
COc1ccccc1N1CCN(C(=O)CN(c2ccccc2OC)S(=O)(=O)c2ccccc2)CC1	-13.4%
Cc1ncc(CN2CCCC(C(=O)Nc3ccc(-c4cccc(F)c4)cc3)C2)cn1 (stereo not drawn)	-73.2%
NC(=O)c1ccsc1NC(=O)COC(=O)Cc1cccc2ccccc12	-23%
CCOC(=O)CS(=O)(=O)c1ccc2ccccc2c1	-4.08%
CC1CC1C(=O)OCC(=O)N(C)c1c(N)n(Cc2ccccc2)c(=O)[nH]c1=O (stereo not drawn)	-33.2%
COc1cc(/C=N/n2c(-c3ccccc3)n[nH]c2=S)cc(OC)c1OC	7.69%
Cc1nc2sc(C(=O)OC(C)C)c(N)c2c(C)c1C	13.1%
Cc1cc(C(C)(C)C)cc(C)c1C[n+]1ccc2ccccc2c1.[Cl-]	-37.3%
COc1ccccc1CC(NC(C)=O)C(=O)N1CCN(C(=O)c2cccs2)CC1 (stereo not drawn)	1.39%

SMILES	hERG current change (%, negative = inhibition) at 10uM
Clc1cccc(N/N=C/c2ccc(N3CCOCC3)cc2)c1	11.9%
CC12CCC(=O)N1C(C(=O)NCCN1C(=O)S/C(=C\c3ccccc3F)C1=O)CS2 (stereo not drawn)	-30.5%
CCOC(=O)N1CCN(C(=O)CN2C(=O)c3ccccc3S2(=O)=O)CC1	12%
COC(CNC(=O)CN1C(=O)COc2ccc(S(=O)(=O)N3CCOCC3)cc21)OC	18.9%
CCc1nnc(NS(=O)(=O)c2ccc(NC(=O)c3cccc(OC)c3)cc2)s1	23.2%
O=C1CC(NCC2CCCO2)C(=O)N1c1ccc(Cl)cc1 (stereo not drawn)	11.2%
CC1Cn2c(nnc2-c2cc3ccccc3cc2O)S1 (stereo not drawn)	16%
Cc1cccc(C)c1NC(=O)Cn1nnc(-c2ccc(N3CCOCC3)cc2)n1	-42.5%
CC1OC2C(OC1C)N(S(C)(=O)=O)CCN2S(C)(=O)=O (stereo not drawn)	14.9%
Cc1ccc(N=C2NC(=O)/C(=C/c3cn(C)c4ccccc34)S2)cc1C	6.57%
COc1ccc(CNS(=O)(=O)c2ccc3c(c2)N(C(C)=O)CC(C)S3)cc1 (stereo not drawn)	-12.7%
COC(=O)c1ccc(-c2nc(CN3CCC(C(=O)N4CCOCC4)CC3)c(C)o2)cc1	-7.65%
O=C(c1ccco1)N1CCn2c1nc1ccccc12	-12.1%
CCC(=NCc1cc(OC)cc(OC)c1)c1c(O)n(C)c(=O)n(C)c1=O	-9.04%
O=[N+]([O-])c1ccc(Cl)cc1N1CCOCC1	20.4%
O=C(CCn1nc(-c2ccccc2)c2ccccc2c1=O)N1CCN(c2ccccc2)CC1	-45.1%
CCCCC(=O)Nc1nnc(SCC(=O)NC2CC2)s1	-8.79%
Cc1ccc(OCc2n[nH]c(=S)n2Cc2ccccc2)cc1	16.1%
Br.CC(=O)Nc1nc(C)c(-c2csc(Nc3cccc(C(C)=O)c3)n2)s1	2.59%
